Measurements from paper PMC6919601, “Identification of Plasmodium dipeptidyl aminopeptidase allosteric inhibitors by high throughput screening” (PLoS ONE, 2019).
The campaign covered roughly 110,000 compounds. About 230 (0.21%) showed an effect of 50% or more. Some of the results follow.

Molecular target: DPAP1 (Plasmodium falciparum, UniProt Q8IIJ9)
Experiment: primary screen, percent inhibition; read by cleavage of a fluorogenic dipeptide substrate; higher = more effect of the substance
Design: species or system P. falciparum D10 trophozoite lysates; single well
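Note: 30 min substrate incubation versus DMSO and 10 µM JCP410 controls.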

Sequence of DPAP1 (Q8IIJ9 whole entry, looked up): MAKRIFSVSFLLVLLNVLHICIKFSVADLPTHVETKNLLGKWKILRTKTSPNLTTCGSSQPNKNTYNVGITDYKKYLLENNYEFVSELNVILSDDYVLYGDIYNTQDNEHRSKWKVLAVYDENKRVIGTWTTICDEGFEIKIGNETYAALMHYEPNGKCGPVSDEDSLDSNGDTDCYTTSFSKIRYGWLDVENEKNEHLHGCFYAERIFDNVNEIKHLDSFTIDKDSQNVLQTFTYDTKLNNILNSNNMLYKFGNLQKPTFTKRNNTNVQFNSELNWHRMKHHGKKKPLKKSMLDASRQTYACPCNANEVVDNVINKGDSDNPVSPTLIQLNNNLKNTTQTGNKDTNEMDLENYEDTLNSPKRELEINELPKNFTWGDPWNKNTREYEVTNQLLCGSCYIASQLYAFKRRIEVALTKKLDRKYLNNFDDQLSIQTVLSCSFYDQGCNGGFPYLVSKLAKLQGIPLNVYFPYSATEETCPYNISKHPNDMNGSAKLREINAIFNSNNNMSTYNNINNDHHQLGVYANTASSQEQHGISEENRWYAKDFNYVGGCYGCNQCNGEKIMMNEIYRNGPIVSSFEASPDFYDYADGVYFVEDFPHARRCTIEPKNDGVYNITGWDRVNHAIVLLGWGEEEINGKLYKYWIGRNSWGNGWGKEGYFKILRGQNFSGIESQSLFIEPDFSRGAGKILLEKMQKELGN

First: Cc1noc(/C=C/N(C)C)c1S(=O)(=O)N1CCCCC1
Second: Cn1c(=O)n(C)c2cc(S(=O)(=O)N3CCOCC3)ccc21
The “% Inhibition @ 10 uM” value of the first is higher: 17.5% for the first, -2.03% for the second.

First: O=C(CN1C(=O)c2ccccc2C1=O)NCCCN1CCOCC1
Second: O=C(CCN1C(=O)c2ccccc2C1=O)N1CCN(C(=O)c2ccccc2)CC1
The “% Inhibition @ 10 uM” value of the first is higher: -5.28% for the first, -7.34% for the second.

Going from `O=S(=O)(NCCOC12CC3CC(CC(C3)C1)C2)c1ccc2nc(O)sc2c1` to `Cc1ccc(C23CC4CC(CC(C(=O)NC(C)C(=O)O)(C4)C2)C3)cc1` (centres unmarked), the “% Inhibition @ 10 uM” value rises from -2.19% to 7.5%.

Going from `CCOC(=O)N1CCC(NC(=O)c2sc(-n3cccc3)nc2C)CC1` to `CCOC(=O)N1CCC(N2CCN(S(=O)(=O)c3ccc(OC)cc3)CC2)CC1`, the “% Inhibition @ 10 uM” value falls from -2.37% to -5.28%.

Going from `CCOC(=O)CSC1=C(C#N)C2(CCCC2)C(C#N)C(=O)N1` (centres unmarked) to `CC1(CC(NC(=O)OCc2ccccc2)C(=O)NCC#N)CCCC1` (centres unmarked), the “% Inhibition @ 10 uM” value falls from 1.42% to -6.46%.

Going from `O=C(NCc1ccccn1)c1ccc(Cl)cc1` to `O=C(NCCO)/C(=C\c1ccc(Cl)cc1)NC(=O)c1ccccc1`, the “% Inhibition @ 10 uM” value falls from 4.89% to -2.62%.

Going from `Cc1ccc(Cn2c(CN3CC(C)OC(C)C3)nc3c2c(=O)[nH]c(=O)n3C)cc1` (centres unmarked) to `Cn1c(=O)[nH]c(=O)c2c1nc1oc(-c3ccccc3)cn12`, the “% Inhibition @ 10 uM” value rises from -3.14% to 2.16%.

Compared with `CCOC(=O)c1ccc2nc(C(F)(F)F)nc(N3CC(C)CC(C)C3)c2c1` (centres unmarked), `CCOC(=O)C1=C(C)NC(=O)NC1c1ccc(F)cc1F` (centres unmarked) is lower in “% Inhibition @ 10 uM” value: -1.11% for the first, -3.67% for the second.

First: CN(Cc1ccccc1)Cc1ccccc1O
Second: O=C(Cn1cc(SCc2ccccc2)c2ccccc21)N1CCCC1
The “% Inhibition @ 10 uM” value of the first is higher: -1.78% for the first, -2.55% for the second.

Going from `COc1ccc(C(=O)NCc2nnc(SCC(=O)NC3CCCCC3)o2)cc1` to `Cc1ccc(C(=O)NC2CCCC2)cc1[N+](=O)[O-]`, the “% Inhibition @ 10 uM” value falls from 76.6% to 1.83%.

Compared with `COc1cccc(/C=C2\SC(Nc3ccc(F)cc3)=NC2=O)c1`, `COc1ccc(NCc2ccc(Br)cc2)cc1` is lower in “% Inhibition @ 10 uM” value: 6.79% for the first, 4.22% for the second.

Compared with `Cc1ccsc1/C=C1\CN(C)C/C(=C\c2sccc2C)C1=O`, `Cc1cc2sc3ccccc3c(=O)c2c(C)c1O` is lower in “% Inhibition @ 10 uM” value: 6.89% for the first, -4.23% for the second.

First: COc1ccc(C2c3cc(OC)c(OC)cc3CC(=O)N2c2ccc(C(=O)O)cc2)cc1 (centres unmarked)
Second: COc1cc2c(cc1OC)C(c1ccccc1)N(S(=O)(=O)c1ccc(C)cc1)CC2 (centres unmarked)
The “% Inhibition @ 10 uM” value of the first is higher: 12.4% for the first, -1.47% for the second.

Going from `Cc1ccc(-c2cc(C(=O)NCc3cn(C)nc3C)c3ccccc3n2)cc1C` to `Cc1cc(-c2ccc(C)c(S(=O)(=O)N3CC=C(c4ccccc4)CC3)c2)on1`, the “% Inhibition @ 10 uM” value rises from -1.1% to 3.2%.

Going from `O=C(/C(=C/Nc1cccc(Cl)c1)C(=O)C(F)(F)F)c1cccs1` to `O=C(Nc1ccccc1NC(=O)c1cccs1)c1cccs1`, the “% Inhibition @ 10 uM” value falls from 1.35% to -1.04%.

Going from `C=CCNC(=O)/C(C#N)=C/c1c(Oc2cccc(C)c2C)nc2c(C)cccn2c1=O` to `Cc1ccc(C(=O)Nc2sc(C(=O)N(C)C)c(C)c2C#N)cc1`, the “% Inhibition @ 10 uM” value falls from 2% to -1.3%.

First: N#CCNC(=O)[C@H](Cc1ccc(OCc2ccccc2)cc1)NC(=O)c1ccccc1
Second: N#CCNC(=O)C(Cc1cccc(OC(=O)OCc2ccccc2)c1)NC(=O)OCc1ccccc1 (centres unmarked)
The “% Inhibition @ 10 uM” value of the first is lower: -5.21% for the first, -1.83% for the second.

Compared with `CCc1nonc1NC(=O)c1oc2c(C)c(C)ccc2c1C`, `Cc1onc(-c2ccccc2Cl)c1C(=O)Nc1sc(C)c(C)c1C(N)=O` is higher in “% Inhibition @ 10 uM” value: 1.67% for the first, 4.88% for the second.

Compared with `COc1ccc(C(=O)C(=O)c2ccc(OC)c(OC)c2)cc1OC`, `COc1ccc(C(=N)NOC(=O)COc2ccc(Cl)cc2C)cc1OC` is lower in “% Inhibition @ 10 uM” value: 1.78% for the first, -1.47% for the second.

First: O=C(c1ccccc1)c1cc(Cl)ccc1NC(=O)C1COc2ccccc2O1 (centres unmarked)
Second: C/C(O)=C1/C=C(NC(=O)c2ccccc2)C(=O)N(c2ccccc2)C1=O
The “% Inhibition @ 10 uM” value of the first is higher: -5.1% for the first, -5.48% for the second.

Going from `CCOC(=O)N1CCN(Cc2ccccc2Br)CC1` to `COC(=O)Nc1ccccc1C(=O)N1CCN(Cc2ccccc2)CC1`, the “% Inhibition @ 10 uM” value rises from -0.0494% to 7.22%.

Going from `CCN1C(=O)N/C(=C/c2ccc(OCc3cccc(C(=O)O)c3)c(Br)c2)C1=O` to `C=CCN1C(=O)N/C(=C/c2c(F)cccc2Cl)C1=O`, the “% Inhibition @ 10 uM” value rises from -17.7% to -1.6%.

Going from `COc1ccc(C2=CC(c3ccc(F)cc3)n3ncnc3N2)cc1OC` (centres unmarked) to `COc1ccc(C(=O)Nc2cccc(O)c2)cc1OC`, the “% Inhibition @ 10 uM” value falls from 12.6% to 2.54%.

First: O=C(CN1C(=O)C2C3C=CC(C3)C2C1=O)N1CCN(C(c2ccccc2)c2ccc(Cl)cc2)CC1 (centres unmarked)
Second: Cc1ccc(C2(C)CC(C)(C)N(C(=O)CN3C(=O)CCC3=O)c3ccccc32)cc1 (centres unmarked)
The “% Inhibition @ 10 uM” value of the first is higher: 7.29% for the first, -3.26% for the second.

First: COc1cc(C(=O)NC(C)C(=O)O)cc(OC)c1OC (centres unmarked)
Second: COc1cc(C(=O)NC(C)C2COc3ccccc3O2)cc(OC)c1OC (centres unmarked)
The “% Inhibition @ 10 uM” value of the first is higher: 0.035% for the first, -1.29% for the second.

First: O=S(=O)(Nc1cccc(Cl)c1Cl)c1ccc(F)cc1
Second: Cc1ccc(CNS(=O)(=O)c2ccc(-n3cccn3)cc2)cc1
The “% Inhibition @ 10 uM” value of the first is lower: -3.44% for the first, -1.6% for the second.

Going from `CC1CCCC(NC(=O)c2ccc(C/N=c3/c(N4CCCC4)c(O)c3=O)cc2)C1C` (centres unmarked) to `CC1CCCCN1C(=O)c1ccc(C(=O)N2CCCCC2C)nc1` (centres unmarked), the “% Inhibition @ 10 uM” value rises from -3.96% to 1.49%.

Compared with `Cc1nc2c([nH]1)OC(N)=C(C#N)C2c1ccccc1F` (centres unmarked), `CCCCc1[nH]nc2c1C(c1ccc(N(C)C)cc1)C(C#N)=C(N)O2` (centres unmarked) is lower in “% Inhibition @ 10 uM” value: 2.76% for the first, -2.77% for the second.

Going from `COc1ccc(OC)c(S(=O)(=O)N2CCN(C(=O)c3ccco3)CC2)c1` to `COc1ccc(CCNC(=O)CCCn2ncn3c(cc4occc43)c2=O)cc1OC`, the “% Inhibition @ 10 uM” value rises from -7.34% to 4.55%.

Going from `Oc1c2c(nc3cc(-c4ccccc4)nn13)CCC2` to `CCCNC(=O)c1nn2c(C(F)(F)F)cc(-c3ccccc3)nc2c1Cl`, the “% Inhibition @ 10 uM” value rises from -9.37% to 5.03%.

First: O=c1cc(CSc2cccc3cccnc23)c2ccc(O)cc2o1
Second: O=C(Nc1ncc(Cc2cccc(C(F)(F)F)c2)s1)c1cc2ccccc2c(=O)o1
The “% Inhibition @ 10 uM” value of the first is lower: 0.032% for the first, 3.34% for the second.

First: N#CCNC(=O)[C@H](CC1CCCCC1)NC(=O)CCC(=O)O
Second: CC(C)C[C@H](NC(=O)c1cc(Br)c(Cl)s1)C(=O)NCC#N
The “% Inhibition @ 10 uM” value of the first is lower: -6.98% for the first, -1.82% for the second.

Compared with `Cc1ccc(S(=O)(=O)NCCC(=O)NCCC(C)C)cc1`, `Cc1ccc(NC(=O)c2nc(C)c(C)nc2C(=O)NC(C)C)cc1` is lower in “% Inhibition @ 10 uM” value: 1.42% for the first, -3.69% for the second.

First: CCOCCCNC(=O)Cn1c(=O)c2cccn2c2cccnc21
Second: NC(=O)CSc1nc2ncccc2c(=O)n1Cc1ccccc1Cl
The “% Inhibition @ 10 uM” value of the first is lower: -3.27% for the first, -1.66% for the second.

First: Cc1nc2nc(NC(=O)c3ccc(C(C)(C)C)cc3)nn2c(C)c1Cl
Second: Cc1cc(C)n2nc(SCC(=O)NC3CCCC(C)C3C)nc2n1 (centres unmarked)
The “% Inhibition @ 10 uM” value of the first is higher: 3.66% for the first, -0.519% for the second.

Compared with `NC(=O)C1CCN(C2CC(=O)N(c3ccc(Br)cc3)C2=O)CC1` (centres unmarked), `COc1ccc(N2CC(O)Cn3c2nc2c3c(=O)n(C)c(=O)n2C)cc1` (centres unmarked) is higher in “% Inhibition @ 10 uM” value: 0.658% for the first, 2.75% for the second.

Compared with `CCSc1nc2c(c(=O)n1C1CCCC1)C1(CCCC1)Cc1ccccc1-2`, `CN1CCC(N(C)Cc2ccc(-c3ccccc3)cc2)CC1` is lower in “% Inhibition @ 10 uM” value: -0.436% for the first, -5.41% for the second.

First: CCOC(=O)c1nc(C)[nH]c1C(=O)OCC
Second: CCOC(=O)c1c(NC(=O)COc2c(F)c(F)cc(F)c2F)sc(C(=O)N(CC)CC)c1C
The “% Inhibition @ 10 uM” value of the first is lower: -7.46% for the first, 10% for the second.

Going from `CCc1ccc(C(C)(O)C(CN2CCOCC2)c2ccccc2)cc1` (centres unmarked) to `OC(COc1ccc2ccccc2c1)CN1CCCC1` (centres unmarked), the “% Inhibition @ 10 uM” value rises from -2.28% to 1.4%.

Going from `O=C(NCCOCc1ccc(Cl)cc1)c1cncc(Br)c1` to `NC(CC(=O)O)c1ccc(Cl)cc1` (centres unmarked), the “% Inhibition @ 10 uM” value rises from -3.04% to -1.69%.

Compared with `COc1ccccc1CNS(=O)(=O)c1c(C)noc1C`, `CCOC(=O)Nc1cc(=O)c2ccccc2o1` is higher in “% Inhibition @ 10 uM” value: -2.7% for the first, 5.03% for the second.

Going from `O=c1ccn(-c2nc(-c3ccccc3)sc2-c2ccccc2)c(=O)[nH]1` to `Cc1ccc(CNC(=O)[C@@H](c2ccccc2)N2Cc3ccccc3C2=O)cc1`, the “% Inhibition @ 10 uM” value falls from 2.65% to 1.26%.

First: CC(=O)c1ccc(OCC(O)CN2C(C)(C)CC(O)CC2(C)C)cc1 (centres unmarked)
Second: COc1ccc(C2C3CCc4cc(OC)ccc4C3=NN2/C(C)=C/C(C)=O)cc1 (centres unmarked)
The “% Inhibition @ 10 uM” value of the first is lower: -1.4% for the first, 58.5% for the second.

First: COc1ccc(C2=NN3C(C2)c2cc(Br)ccc2OC3c2ccncc2)cc1 (centres unmarked)
Second: Fc1cc(Br)ccc1-n1ncnc1-c1ccccc1
The “% Inhibition @ 10 uM” value of the first is higher: 27.9% for the first, -1.82% for the second.

Going from `c1ccc2cc(OCCCN3CCCC3)ccc2c1` to `S=C(Nc1ccc2nccnc2c1)N1CCCCCC1`, the “% Inhibition @ 10 uM” value rises from -1.64% to 2.16%.

Compared with `O[C@H]1CC[C@H](NC2C3CC4CC(C3)CC2C4)CC1` (some centres unmarked), `Cc1cc(C)c(S(=O)(=O)NCC2CCC(C(=O)N3CCN(C)CC3)CC2)c(C)c1` (centres unmarked) is lower in “% Inhibition @ 10 uM” value: 2.91% for the first, -2.72% for the second.

Compared with `COc1ccc(CC2C(=O)NC(=S)NC2=O)c(OC)c1`, `COc1ccc(Cc2ccc(OC)c(N)c2)cc1N` is higher in “% Inhibition @ 10 uM” value: -2.48% for the first, 8.06% for the second.

First: CCCN(CCC)C(=O)CSc1ncccc1C(=O)O
Second: CCCCN(CCCC)S(=O)(=O)c1ccc2nc(O)cc(C(=O)NCc3cccnc3)c2c1
The “% Inhibition @ 10 uM” value of the first is higher: -2.26% for the first, -3.12% for the second.

Going from `c1ccc(CNc2ncnc3scc(-c4cccs4)c23)nc1` to `Cn1c2c(c(=O)n(C)c1=O)C(c1ccc(F)cc1)C1=C(O)c3ccccc3C1=N2` (centres unmarked), the “% Inhibition @ 10 uM” value rises from -4.04% to 1.08%.

First: CSC1=NC(n2ncc(C#N)c2N)c2c(oc3c2CC(C)(C)SC3)N1 (centres unmarked)
Second: CCCSc1nc2cn(CC)nc2c(=O)n1Cc1ccc(Cl)cc1
The “% Inhibition @ 10 uM” value of the first is higher: 2.4% for the first, -5.89% for the second.

In the case of `Cc1ccc(C(=O)N/C(=C/c2ccccc2)C(=O)NCC(=O)O)cc1`, the “% Inhibition @ 10 uM” value is reported as 0.222%.
